Holding throughout (test): Viability of human cancer cell lines after 72 h of drug (GDSC screen)
Compound in test [1]: C=CC(=O)Nc1cc(-n2c(=O)ccc3cnc4ccc(-c5ccc(NS(C)(=O)=O)cc5)cc4c32)ccc1C [BMX-IN-1 (QL-XII-61)]
The following applies: top dose 10 µM; top dose inferred. As to the method: (§1)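 Human cancer cell lines in 384-well plates, medium with 10% serum, drug for 72 h over a 256-fold dose range (nine 2-fold or five 4-fold steps up to the top dose). Adherent lines were fixed and stained with the nucleic acid dye Syto60, suspension lines read with resazurin; signal relative to control wells, capped at 0 and 100%. One two-parameter sigmoid per drug and line, fitted in a mixed model over all curves with the slope shared within a line.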

Compound in test [2]: C=CCNC1=C2C[C@@H](C)C[C@H](OC)[C@H](O)[C@@H](C)/C=C(\C)[C@H](OC(N)=O)[C@@H](OC)/C=C\C=C(/C)C(=O)NC(=CC1=O)C2=O [17-AAG]
The note with it: top dose 1 µM. As to the method: as §1

Compound in test [3]: CCc1cc(-c2n[nH]c(C)c2-c2ccc3c(c2)OCCO3)c(O)cc1O [CCT018159]
The following applies: top dose 10 µM; top dose inferred. How it is done: as §1

Compound in test [4]: CN(C)Cc1cccc(N=C(c2ccccc2)c2c(O)[nH]c3cc(C(=O)N(C)C)ccc23)c1 [BIX02189]
The note with it: top dose 20 µM; top dose inferred. How it is done: as §1

Compound in test [5]: COC(=O)CNC(=O)C(=O)OC [Dimethyloxalylglycine]
The following applies: top dose 4000 µM; top dose inferred. As to the method: as §1

Compound in test [6]: COc1cccc2cc(-c3nc([C@H]4CC[C@H](C(=O)O)CC4)n4ncnc(N)c34)[nH]c12 [OSI-027]
The following applies: top dose 20 µM. How it is done:
as §1

Compound in test [7]: CS(=O)(=O)c1ccc(C(=O)Nc2ccc(Cl)c(-c3ccccn3)c2)c(Cl)c1 [Vismodegib]
The note with it: top dose 10 µM; top dose inferred. How it is done:
as §1

Compound in test [8]: Cc1cnc(Nc2ccc(F)cc2Cl)nc1-c1c[nH]c(C(=O)N[C@H](CO)c2cccc(Cl)c2)c1 [VX-11e]
The following applies: top dose 5.12 µM; top dose inferred. As to the method: as §1

Compound in test [9]: Cc1cnc(Nc2ccc(OCCN3CCCC3)cc2)nc1Nc1cccc(S(=O)(=O)NC(C)(C)C)c1 [TG101348]
The note with it: top dose 10.24 µM. How it is done: as §1

Compound in test [10]: O=C(c1ccc(C(=O)N2CCC(N3CCCC3)CC2)c(Nc2ccccc2)c1)N1CCC(N2CCCC2)CC1 [UNC1215]
The following applies: top dose 1 µM; top dose inferred. As to the method:
as §1

pIC50: −log10 of the molar value. Lines with a small IC50 respond at low doses; fits outside the tested doses are given as limits. AUC sums up the same curve from the lowest dose to the 256-fold higher top dose; values near 1 show little effect. For some of these results: The top dose, if marked as inferred, is not printed in the source and was worked back from the curve model.

Regarding SK-N-AS (neuroblastoma, adherent), the AUC in test [1] worked out at 0.979; in test [2] it was 0.954; in test [3], 0.87; in test [4] it was 0.943; in test [5], 0.648; in test [6], 0.37. Moreover, the AUC in [7] amounted to 0.984; in test [8] it was 0.876; in test [9], 0.816; in test [10], 0.981. For the same cell line, the pIC50 (usually the IC50 on a negative log10 scale, so that one unit is a factor of ten) in test [1] was below 5.00; in [2], below 6.00; in test [3], below 5.00; in [4], below 4.70; in test [5], 3.16; in test [6], 6.29. Further, the pIC50 is below 5.00 in test [7], below 5.29 in test [8], 5.17 in test [9] and below 6.00 in test [10].

Turning to OV-90 (ovary, adherent), the AUC in test [1] is 0.974; in test [2], 0.377; in [3] it was 0.977; in test [4], 0.978; in [5] it was 0.659; in test [6] it was 0.617. For the same cell line, the AUC in test [7] came out at 0.978; in test [8], 0.909; in test [9], 0.906; in test [10], 0.975. The pIC50 in [1] was below 5.00; in [2] it was 7.59; in test [3], below 5.00; in test [4] it was below 4.70; in test [5], 3.11; in test [6] it was 5.54. Besides, the pIC50 was below 5.00 in test [7], below 5.29 in [8], below 4.99 in test [9] and below 6.00 in test [10].

SF295 (glioma, adherent): the AUC in test [1] is 0.968; in test [2] it was 0.527; in test [3], 0.892; in test [4], 0.985; in test [5], 0.571; in [6], 0.476. Further, the AUC is 0.919 in test [7], 0.985 in test [8], 0.956 in test [9] and 0.973 in [10]. The pIC50 was below 5.00 in test [1]; below 5.00 in [3]; below 4.70 in [4]; 3.40 in test [5]; 5.97 in test [6]; below 5.00 in [7]. For the same cell line, the pIC50 in test [8] is below 5.29; in [9], below 4.99; in test [10], below 6.00.

As to TE-1 (oesophagus, adherent), the AUC in test [1] was found to be 0.922; in test [2] it was 0.586; in test [3], 0.849; in test [4] it was 0.982; in test [5], 0.631; in [6], 0.866. In addition, the AUC in test [7] is 0.972; in test [8], 0.981; in test [9] it was 0.904; in test [10] it was 0.97. The negative logarithm of the IC50 (pIC50) in test [1] was below 5.00; in test [2], 6.94; in test [3], below 5.00; in test [4], below 4.70; in test [5], 3.20; in [6] it was below 4.70. The pIC50 in test [7] is below 5.00; in test [8], below 5.29; in test [9] it was below 4.99; in test [10], below 6.00.

As to BT-20 (breast, adherent), the AUC in [1] was 0.982; in [2] it was 0.757; in test [3], 0.894; in [4], 0.983; in test [5], 0.662; in test [6] it was 0.669. The AUC was 0.934 in test [7], 0.984 in test [8], 0.916 in [9] and 0.982 in [10]. The pIC50 in test [1] was below 5.00; in test [2] it was 6.38; in test [3], below 5.00; in [4], below 4.70; in test [5], 3.10; in test [6], 5.38. Besides, the pIC50 is below 5.00 in test [7], below 5.29 in [8], below 4.99 in test [9] and below 6.00 in [10].

Turning to OVCAR-4 (ovary, adherent), the AUC in test [1] is 0.959; in test [2], 0.899; in test [3] it was 0.945; in [4], 0.892; in test [5] it was 0.376; in test [6] it was 0.553. Moreover, the AUC in test [7] turned out to be 0.945; in test [8], 0.906; in test [9], 0.839; in test [10] it was 0.97. The pIC50 was below 5.00 in test [1]; below 6.00 in test [2]; below 5.00 in test [3]; below 4.70 in test [4]; 4.02 in test [5]; 5.73 in test [6]. Moreover, the pIC50 in [7] is below 5.00; in [8], below 5.29; in [9] it was below 4.99; in test [10], below 6.00.

With “NCI-H226 (lung squamous cell carcinoma, adherent)”, the AUC in test [1] came out at 0.986; in test [2], 0.893; in test [3] it was 0.965; in test [4] it was 0.946; in test [5] it was 0.846; in test [6] it was 0.741. Moreover, the AUC in [7] is 0.987; in [8], 0.798; in [9], 0.812; in test [10], 0.986. Besides, the pIC50 in test [1] was below 5.00; in [2], below 6.00; in test [3] it was below 5.00; in test [4] it was below 4.70; in [5], 2.50; in [6] it was 5.20. Further, the pIC50 in [7] was below 5.00; in [8], 5.59; in test [9], 5.23; in [10], below 6.00.

(Values after the supplement of paper PMC4967469.)
